Results on one compound are retold here after patent US20060194762A1, “Composition comprising an epothilone and methods for producing a composition comprising an epothilone” (priority 2004, published 2006).

≈ marks a conversion by molar mass, not a printed value. Where “and” joins values, the source holds several entries; their conditions need not be identical. Equal entries are not always repeated. Where two headings read alike, the source gives them in different places.

The nature of data set [1]: Dissolving crystalline Epothilone* in aqueous hydroxypropyl-β-cyclodextrin solution under stirring. Particulars: 200 mg/ml 2-hydroxypropyl-β-cyclodextrin in water. The data set is classed as physicochemical. The method, then:
In the first production step hydroxypropyl-β-cyclodextrin was dissolved in water for injection. In the second production step the crystalline Epothilone* was added to said solution under stirring. […] The target concentration of ≧1 mg/mL was only achieved after 20 hours of stirring time. The resulting solution of Epothilone* and hydroxypropyl-β-cyclodextrin, was adjusted to pH 7.4 by adding diluted hydrochloric acid.

The subject of data set [2] is Patients with histologically confirmed advanced solid tumors.
Data set [3] in a line: Solubility of epothilone in water under saturation conditions. The data set is classed as physicochemical. The source says:
Epothilone is usually not very stable in solution. Thus the compound must be protected from hydrolysis. In addition the stability is dependent from the pH of the solution. […] The low stability of epothilone is shown in example 4. The degradation is proportional to [K×concentration].

The nature of data set [4]: Degradation rate constant of Epothilone* in reconstituted aqueous hydroxypropyl-beta-cyclodextrin solutions at adjusted pH (HPLC). The note with it: aqueous solution containing hydroxypropyl-beta-cyclodextrin. The data set is classed as physicochemical. On the procedure: Stability data of Epothilone* (1S,3S,7S,10R,11S,12S,16R)-7,11-dihydroxy-3-(2-methyl-benzothiazol-5-yl)-10-(prop-2-en-1-yl)-8,8,12,16-tetramethyl-4,17-dioxabicyclo[14.1.0]heptadecane-5,9-dione) in aqueous solutions containing hydroxypropyl-beta-cyclodextrin.
Freeze-dried preparations as shown in Example 1 were reconstituted with water for injection and the pH was then adjusted to pH values between 6.1 and 13.6 using HCl or NaOH. The solutions were left at room temperature or 40° C. and assay and purity were measured at intervals using HPLC.
The degradation rate constant (K) of the Epothilone* decreases as the pH value approaches the neutral pH. The degradation rate is at minimum at pH 7.

The nature of data set [5]: Phase solubility diagram technique: apparent equilibrium stability constant of the complex with hydroxypropyl-beta-cyclodextrin. The class given is physicochemical. Particulars: 25° C., aqueous solution. The source says:
Determination of the apparent equilibrium stability constant of the complex between Epothilone*(1S,3S,7S,10R,11S,12S,16R)-7,11-dihydroxy-3-(2-methylbenzothiazol-5-yl)-10-(prop-2-en-1-yl)-8,8,12,16-tetramethyl-4,17-dioxabicyclo[14,1,0]heptadecane-5,9-dione) and hydroxypropyl-beta-cyclodextrin on aqueous solution.
K′ leads to the assumption that if at all a complex was formed it is not sufficiently stable.

Usually solubility stands for the dissolved amount per volume that the medium holds.

For the compound `C=CC[C@H]1C(=O)C(C)(C)[C@@H](O)CC(=O)O[C@H](c2ccc3sc(C)nc3c2)C[C@@H]2O[C@]2(C)CCC[C@H](C)[C@@H]1O` [Epothilone*, (1S,3S,7S,10R,11S,12S,16R)-7,11-dihydroxy-3-(2-methyl-benzothiazol-5-yl)-10-(prop-2-en-1-yl)-8,8,12,16-tetramethyl-4,17-dioxabicyclo[14.1.0]heptadecane-5,9-dione], in data set [1], the “stirring time after which the target concentration of ≧1 mg/mL was achieved” value came out at 20 h. Also, in data set [1] (after 5 hours and after 10 hours of stirring), the “state of dissolution under stirring” value is given as “not completely been dissolved”. Also, the “Dose limiting toxicity observed” value in data set [2] (16 mg/m^2, 30 minutes intravenous infusion every 3 weeks) is reported as “CTC Grade 3 peripheral neuropathy”. Also, in data set [2] (29 mg/m^2, 30 minutes intravenous infusion every 3 weeks), the “Dose limiting toxicity observed” value was “CTC Grade 4 ataxia”. Also, the “anti-tumor activity in patients” value in data set [2] (breast cancer, NSCLC, cholangiocarcinoma, uveal melanoma and head and neck cancer) is reported as “anti-tumor activity (including objective responses)”. Moreover, in data set [2] (dose levels up to 29 mg/m^2), the “Grade 3-4 non-hematological toxicities other than the DLTs” value was “No Grade 3-4 non-hematological toxicities were reported”; the “Hematologic toxicities, maximum CTC Grade (infrequent)” value was at most 2 CTC Grade; the “Most common side effect” value is listed as “peripheral sensory neuropathy, mostly of Grade 1-2”. The “dose that can be administered every 3 weeks without severe toxicity” value in data set [2] (every 3 weeks, intravenous infusion) is reported as “up to 29 mg/m^2”. In data set [3], this compound registered a solubility of about 12 µg/mL (≈ 22.1 µM). Also, in data set [4], the “pH at which the degradation rate is at minimum” value is given as 7. For the same compound, the “stability constant K′ of an assumed 1:1 complex” value in data set [5] (hydroxypropyl-beta-cyclodextrin) is 484.5 M⁻¹. The solubility in data set [5] (water, thermodynamic from solid, phase solubility diagram, read-out: solubility So) was 43 µM and 23 µg/mL.
